Here are results for 47 compounds from PubChem BioAssay AID1159614 (National Center for Advancing Translational Sciences (NCATS), 2016).

In all, about 45,000 compounds went through this assay and about 65 (0.1%) were called active. The call rests on the fitted dose curve; in most records, active means well fitted activation curve with a large enough effect; inconclusive means small, poorly fitted or top-dose-only effect; inactive means no such curve, though single readings can be large or run the other way. Some of the results follow.

Sequence of UniProt P54803 (P54803 whole entry, looked up): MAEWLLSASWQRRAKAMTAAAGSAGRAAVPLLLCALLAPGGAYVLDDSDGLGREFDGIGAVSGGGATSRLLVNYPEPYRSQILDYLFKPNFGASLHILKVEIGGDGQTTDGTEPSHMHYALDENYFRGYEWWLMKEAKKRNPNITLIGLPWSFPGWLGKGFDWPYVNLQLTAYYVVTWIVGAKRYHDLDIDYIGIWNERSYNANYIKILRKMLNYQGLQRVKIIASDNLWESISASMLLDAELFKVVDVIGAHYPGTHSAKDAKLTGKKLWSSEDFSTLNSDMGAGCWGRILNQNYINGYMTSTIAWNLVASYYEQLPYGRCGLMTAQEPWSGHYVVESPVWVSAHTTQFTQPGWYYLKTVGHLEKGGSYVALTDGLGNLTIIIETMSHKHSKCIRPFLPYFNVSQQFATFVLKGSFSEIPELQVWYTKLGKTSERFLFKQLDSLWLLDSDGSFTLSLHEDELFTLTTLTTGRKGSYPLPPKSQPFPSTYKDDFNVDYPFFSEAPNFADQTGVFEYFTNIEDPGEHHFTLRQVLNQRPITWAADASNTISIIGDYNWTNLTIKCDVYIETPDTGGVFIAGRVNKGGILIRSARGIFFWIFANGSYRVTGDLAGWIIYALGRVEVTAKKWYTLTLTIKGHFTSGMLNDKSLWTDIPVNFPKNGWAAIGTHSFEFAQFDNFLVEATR

The experiment has as its target Galactocerebrosidase (Homo sapiens) (UniProt P54803). Kind of experiment: A Novel Cell-Based Assay to Identify Small Molecules for B -Galactocerebrosidase. Further: 0% is about no effect; nearly all actives have a fitted effect of over 65% in size. The following applies: 145M-Twi-hGALC-G270D cells (Twitcher mouse brain line with human GALC G270D), HMU-beta-Gal fluorescence, 48 h; series mostly up to 57.5 µM; activation: at the top concentration. In short, it runs like this:
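Brain-derived Twitcher mouse 145M-Twi cells stably expressing human GALC-G270D or wild-type GALC, treated live, then residual GALC activity read by fluorescence of HMU-b-Gal substrate (0.1 mM final) in citrate-phosphate buffer pH 5.2 with sodium taurocholate. Signal increase indicates enhancement.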
Regarding `CCCc1nn2c(=O)cc(COc3ccc(/C=C(\C#N)C(=O)Nc4ccc(F)cc4)cc3)nc2s1`, the “activation” value is inactive: -6.07%.
For the compound `COc1ccc(NC(=O)c2ccc(CNS(=O)(=O)c3ccc4c(c3)C(C)(C)C(=O)N4C)cc2)cc1`, the “activation” value is inactive: -36.1%.
For `CC(=O)N1c2ccccc2C(=O)C1N1CCN(c2ccc(F)cc2)CC1` (configuration not stated) the value was inactive: -9.29%; for `Cc1ccc(Cl)cc1NCc1nnc2n1CCCCC2`, inactive: 0.975%; for `O=C(NCCc1csc(-c2cccc(F)c2)n1)c1ccc(Br)o1`, inactive: -32%.
As for `O=C1CC(c2nc(-c3cccc(Cl)c3)no2)CN1c1ccc2c(c1)OCCO2` (configuration not stated), the figure is inactive: -12.4%; as for `COc1cccc(-n2c(=O)c3c(C)c(C(=O)N(C)C)sc3n(CC(=O)Nc3ccc(C)cc3Cl)c2=O)c1`, inactive: 5.01%.
For `CC(C)Oc1ccc(CNC(=O)CCn2c(=O)c3cccn3c3ccc(F)cc32)cc1`, the “activation” value is inactive: -14.7%.
As for `O=C(Nc1ccc2c(c1)N(C1CCCC1)C(=O)c1ccccc1S2)c1cccc(F)c1`, the figure is inactive: -19.1%; as for `Cc1c(C)n(Cc2ccccc2)c2ccc(C(=O)NCCc3ccccc3Cl)cc12`, inactive: -5.42%; as for `CC(C)OCCCNC(=O)CN1C(=O)CSc2ccc(S(=O)(=O)N3CCCCC3)cc21`, inactive: 16.3%.
With `COc1cccc(CNC(=O)C2CCCN(c3ncnc4onc(-c5ccc(F)cc5)c34)C2)c1` (configuration not stated), the “activation” value was inactive: -12.5%.
As for `CCOc1ccccc1CNC(=O)CCc1cn(Cc2ccc(Cl)cc2)c2ccccc12`, the figure is inactive: -6.66%.
With `CCN(C(=O)Cn1c(=O)oc2cc(S(=O)(=O)N3CCCC3)ccc21)c1cccc(C)c1`, the “activation” value was inactive: -13.8%.
As for `Cc1ccc(-n2nnnc2C2CCN(S(=O)(=O)c3ccc(OC(F)(F)F)cc3)CC2)cc1`, the “activation” value was inactive: -5%.
For `Cc1n[nH]c(C)c1S(=O)(=O)N(CC(=O)NCc1ccccc1Cl)c1ccc(C(C)C)cc1` the value was inactive: -1.06%; for `COc1ccc(CNC(=O)c2ccc3[nH]c(C)c(C)c3c2)c(OC)c1`, inactive: 0.797%; for `CCOc1cccc(CNc2ccc(O)cc2)c1OCc1ccccc1Cl`, inactive: -14.7%.
As for `N#C/C(=C\c1ccc(-c2ccc(F)cc2F)o1)c1nc2ccccc2[nH]1`, the figure is inactive: -17.2%; as for `COc1ccc(C(=O)Nc2ccc(OCc3cc(=O)n4ccccc4n3)cc2)cc1`, inactive: -20.6%; as for `Cc1cc(C)cc(NC(=O)CN(C)S(=O)(=O)c2ccc3[nH]c4c(c3c2)CCCC4)c1`, inactive: -19%.
For `CCOc1ccc(CCNC(=O)c2c(C)oc3ncnc(N4CCOCC4)c23)cc1` the value was inactive: -5.78%; for `COCCCNC(=O)CSc1nc2ccccc2c(=O)n1Cc1ccco1`, inactive: -19.9%.
As for `Cc1ccc(NC(=O)CN2C(=O)COc3ccc(S(=O)(=O)N4CCCCCC4)cc32)cc1C`, the “activation” value is inactive: 0.472%.
For `Cc1ccc(C)c(N2CCN(C(=O)CCS(=O)(=O)c3ccc4c(c3)CC(=O)N4C)CC2)c1`, the “activation” value was inactive: -10.5%.
As for `COc1ccc(-c2onc(C)c2C)cc1S(=O)(=O)NCc1ccc(Br)cc1`, the figure is inactive: 2.38%; as for `CCN(CC)CCOC(=O)C(c1ccccc1)C1CCCCC1` (configuration not stated), inactive: 6.5%.
For `CCc1nnc2c(NCCc3ccc(OC)c(OC)c3)nc3ccccc3n12` the value was inactive: -17%.
For `OC[C@H]1O[C@@H](n2cnc3c(=S)nc[nH]c32)[C@H](O)[C@@H]1O` the value was inactive: -14.8%; for `CC(Oc1ccc(F)cc1)C(=O)Nc1cc(-c2ccc(F)c(F)c2)no1` (configuration not stated), inactive: -6.36%; for `Cc1ccc(OCC(=O)N(Cc2ccco2)C2CCS(=O)(=O)C2)cc1` (configuration not stated), inactive: -6.23%.
`Cc1ccc(S(=O)(=O)NCC2CCC(C(=O)N(C)Cc3ccccc3)CC2)cc1` (configuration not stated): the “activation” value was inactive: -44.5%.
As for `COc1cccc(C2CC(=O)Nc3c2c(=O)n(C)c2ncnn32)c1OC` (configuration not stated), the figure is inactive: -8.15%.
As for `COC(=O)c1c(NC(=O)COc2cc(C)c(Cl)c(C)c2)sc2c1CCCC2`, the figure is inactive: -15.7%.
`COc1ccc(OC)c(S(=O)(=O)Nc2cc3c(C(C)=O)c(C)oc3c3ccccc23)c1`: the “activation” value was inactive: -29.7%.
`COc1ccc(-c2nnc(SCC(=O)Nc3ccc(C(C)=O)cc3)nc2-c2ccc(OC)cc2)cc1`: the “activation” value is inactive: -26.5%.
For `CCOc1ccc(NS(=O)(=O)c2ccc3c(c2)CCN3C(C)=O)cc1` the value was inactive: -25.5%.
For `Cc1cccc(NC(=O)c2sc3nc4c(cc3c2N)CN(Cc2ccccc2)CC4)c1` the value was inactive: -5.75%; for `CCCCCCn1c(=O)c2c(ncn2C)n(C)c1=O`, inactive: -9.46%; for `CCOc1ccccc1NC(=O)C(C)Sc1nc(-c2ccccc2)c(C#N)c(=O)[nH]1` (configuration not stated), inactive: -11.9%.
Turning to `COc1ccccc1NC(=O)c1oc2ccccc2c1NC(=O)c1ccccc1C(F)(F)F`, the “activation” value is inactive: -24.5%.
As for `Cc1cc2nc(-c3ccc(OCc4ccc(F)cc4)cc3)cc(C(F)(F)F)n2n1`, the figure is inactive: -4.52%.
Take `O=C(Nc1ccc(NC(=O)c2cccs2)cc1)c1cccc(Br)c1`: the “activation” value was inactive: -8.68%.
As for `CCCCOc1ccc(C(=O)NCCc2sc(-c3cccc(F)c3)nc2C)cc1`, the figure is inactive: -4.25%; as for `Cc1ccc(C)c(Cn2c(=O)n(Cc3ccc4c(c3)OCO4)c(=O)c3oc4ccccc4c32)c1`, inactive: 2.18%.
As for `Cc1nc2sc(C(=O)Nc3ccc(F)cc3)c(N)c2c(-c2ccc(Br)cc2)c1C(=O)Nc1ccc(Cl)cc1`, the figure is inactive: -8.46%; as for `CCc1cccc(NC(=O)c2cnc(SC)nc2-c2ccccc2)c1`, inactive: 2.01%.
